# According to the supplement of paper PMC8728848:
# The other results are listed elsewhere or left out.
# B1: ABA (Agaricus bisporus), Q00022 (protein)
# chain: MTYTISIRVYQTTPKGFFRPVERTNWKYANGGTWDEVRGEYVLTMGGSGTSGSLRFVSSDTDESFVATFGVHNYKRWCDIVTNLTNEQTALVINQEYYGVPIRDQARENQLTSYNVANAKGRRFAIEYTVTEGDNLKANLIIG
# What was measured:
# Experiment in all cases: glycan array binding signal (z-score within array); higher = stronger binding
# Conditions in all cases: glycan notation: IUPAC condensed, linker removed
# [1] = molecular target: Fuc(a1-2)Gal6S(b1-3)GlcNAc
# Procedure, shortened: (§1)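 Glycan array data came from 3228 arrays in the Consortium for Functional Glycomics database, and only arrays with an available protein sequence were kept. Glycan names were put into IUPAC-condensed notation, and columns mapping to the same glycan were averaged. The binding signal is a within-array Z-score, averaged across arrays of one protein sequence run at different concentrations or buffers and across linkers. A negative Z-score can be read as non-binding.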
# [2] = molecular target: Fuc(a1-2)Gal6S(b1-3)GlcNAc6S
# Procedure, shortened: as §1
# Fuc(a1-2)Gal6S(b1-4)Glc = molecular target: Fuc(a1-2)Gal6S(b1-4)Glc
# Procedure, shortened: as §1
# [3] = molecular target: Fuc(a1-2)Gal6S(b1-4)Glc6S
# Procedure, shortened: as §1
# Fuc(a1-2)GlcNAc = molecular target: Fuc(a1-2)GlcNAc
# Procedure, shortened: as §1
# Fuc(a1-2)[Gal(a1-3)]Gal = molecular target: Fuc(a1-2)[Gal(a1-3)]Gal
# Procedure, shortened: as §1
# [4] = molecular target: Fuc(a1-2)[Gal(a1-3)]Gal(b1-3)GalNAc
# Procedure, shortened: as §1
# [5] = molecular target: Fuc(a1-2)[Gal(a1-3)]Gal(b1-3)GalNAc(b1-3)Gal(a1-4)Gal(b1-4)Glc
# Procedure, shortened: as §1
# [6] = molecular target: Fuc(a1-2)[Gal(a1-3)]Gal(b1-3)GlcNAc
# Procedure, shortened: as §1
# [7] = molecular target: Fuc(a1-2)[Gal(a1-3)]Gal(b1-3)GlcNAc(b1-2)Man(a1-3)[Fuc(a1-2)[Gal(a1-3)]Gal(b1-3)GlcNAc(b1-2)Man(a1-6)]Man(b1-4)GlcNAc(b1-4)GlcNAc
# Procedure, shortened: as §1
# [8] = molecular target: Fuc(a1-2)[Gal(a1-3)]Gal(b1-3)GlcNAc(b1-2)Man(a1-3)[Fuc(a1-2)[Gal(a1-3)]Gal(b1-3)GlcNAc(b1-2)Man(a1-6)]Man(b1-4)GlcNAc(b1-4)[Fuc(a1-6)]GlcNAc
# Procedure, shortened: as §1
# [9] = molecular target: Fuc(a1-2)[Gal(a1-3)]Gal(b1-3)GlcNAc(b1-3)GalNAc
# Procedure, shortened: as §1
# [10] = molecular target: Fuc(a1-2)[Gal(a1-3)]Gal(b1-3)GlcNAc(b1-6)GalNAc
# Procedure, shortened: as §1
# [11] = molecular target: Fuc(a1-2)[Gal(a1-3)]Gal(b1-4)Glc
# Procedure, shortened: as §1
# [12] = molecular target: Fuc(a1-2)[Gal(a1-3)]Gal(b1-4)GlcNAc
# Procedure, shortened: as §1
# [13] = molecular target: Fuc(a1-2)[Gal(a1-3)]Gal(b1-4)GlcNAc(b1-2)Man
# Procedure, shortened: as §1
# [14] = molecular target: Fuc(a1-2)[Gal(a1-3)]Gal(b1-4)GlcNAc(b1-2)Man(a1-3)[Fuc(a1-2)[Gal(a1-3)]Gal(b1-4)GlcNAc(b1-2)Man(a1-6)]Man(b1-4)GlcNAc(b1-4)GlcNAc
# Procedure, shortened: as §1
# [15] = molecular target: Fuc(a1-2)[Gal(a1-3)]Gal(b1-4)GlcNAc(b1-2)Man(a1-3)[Fuc(a1-2)[Gal(a1-3)]Gal(b1-4)GlcNAc(b1-2)Man(a1-6)]Man(b1-4)GlcNAc(b1-4)[Fuc(a1-6)]GlcNAc
# Procedure, shortened: as §1
# [16] = molecular target: Fuc(a1-2)[Gal(a1-3)]Gal(b1-4)GlcNAc(b1-3)GalNAc
# Procedure, shortened: as §1
# [17] = molecular target: Fuc(a1-2)[Gal(a1-3)]Gal(b1-4)GlcNAc(b1-3)[Fuc(a1-2)[Gal(a1-3)]Gal(b1-4)GlcNAc(b1-6)]GalNAc
# Procedure, shortened: as §1
# [18] = molecular target: Fuc(a1-2)[Gal(a1-3)]Gal(b1-4)GlcNAc(b1-6)GalNAc
# Procedure, shortened: as §1
# [19] = molecular target: Fuc(a1-2)[Gal(a1-3)]Gal(b1-4)[Fuc(a1-3)]Glc
# Procedure, shortened: as §1
# [20] = molecular target: Fuc(a1-2)[Gal(a1-3)]Gal(b1-4)[Fuc(a1-3)]GlcNAc
# Procedure, shortened: as §1
# [21] = molecular target: Fuc(a1-2)[Gal(a1-3)]Gal(b1-4)[Fuc(a1-3)]GlcNAc(b1-3)GalNAc
# Procedure, shortened: as §1
# [22] = molecular target: Fuc(a1-2)[Gal(a1-4)]Gal(b1-4)GlcNAc
# Procedure, shortened: as §1
# [23] = molecular target: Fuc(a1-2)[GalNAc(a1-3)]Gal
# Procedure, shortened: as §1
# [24] = molecular target: Fuc(a1-2)[GalNAc(a1-3)]Gal(b1-3)GalNAc(a1-3)[Fuc(a1-2)]Gal(b1-4)GlcNAc
# Procedure, shortened: as §1
# [25] = molecular target: Fuc(a1-2)[GalNAc(a1-3)]Gal(b1-3)GalNAc(b1-3)Gal(a1-4)Gal(b1-4)Glc
# Procedure, shortened: as §1
# [26] = molecular target: Fuc(a1-2)[GalNAc(a1-3)]Gal(b1-3)GlcNAc
# Procedure, shortened: as §1
# [27] = molecular target: Fuc(a1-2)[GalNAc(a1-3)]Gal(b1-3)GlcNAc(b1-2)Man(a1-3)[Fuc(a1-2)[GalNAc(a1-3)]Gal(b1-3)GlcNAc(b1-2)Man(a1-6)]Man(b1-4)GlcNAc(b1-4)GlcNAc
# Procedure, shortened: as §1
# [28] = molecular target: Fuc(a1-2)[GalNAc(a1-3)]Gal(b1-3)GlcNAc(b1-2)Man(a1-3)[Fuc(a1-2)[GalNAc(a1-3)]Gal(b1-3)GlcNAc(b1-2)Man(a1-6)]Man(b1-4)GlcNAc(b1-4)[Fuc(a1-6)]GlcNAc
# Procedure, shortened: as §1
# [29] = molecular target: Fuc(a1-2)[GalNAc(a1-3)]Gal(b1-3)GlcNAc(b1-3)GalNAc
# Procedure, shortened: as §1
# [30] = molecular target: Fuc(a1-2)[GalNAc(a1-3)]Gal(b1-3)GlcNAc(b1-6)GalNAc
# Procedure, shortened: as §1
# [31] = molecular target: Fuc(a1-2)[GalNAc(a1-3)]Gal(b1-4)Glc
# Procedure, shortened: as §1
# [32] = molecular target: Fuc(a1-2)[GalNAc(a1-3)]Gal(b1-4)GlcNAc
# Procedure, shortened: as §1
# [33] = molecular target: Fuc(a1-2)[GalNAc(a1-3)]Gal(b1-4)GlcNAc(b1-2)Man
# Procedure, shortened: as §1
# [34] = molecular target: Fuc(a1-2)[GalNAc(a1-3)]Gal(b1-4)GlcNAc(b1-2)Man(a1-3)[Fuc(a1-2)[GalNAc(a1-3)]Gal(b1-4)GlcNAc(b1-2)Man(a1-6)]Man(b1-4)GlcNAc(b1-4)GlcNAc
# Procedure, shortened: as §1
# [35] = molecular target: Fuc(a1-2)[GalNAc(a1-3)]Gal(b1-4)GlcNAc(b1-2)Man(a1-3)[Fuc(a1-2)[GalNAc(a1-3)]Gal(b1-4)GlcNAc(b1-2)Man(a1-6)]Man(b1-4)GlcNAc(b1-4)[Fuc(a1-6)]GlcNAc
# Procedure, shortened: as §1
# [36] = molecular target: Fuc(a1-2)[GalNAc(a1-3)]Gal(b1-4)GlcNAc(b1-3)Gal(b1-4)GlcNAc
# Procedure, shortened: as §1
# [37] = molecular target: Fuc(a1-2)[GalNAc(a1-3)]Gal(b1-4)GlcNAc(b1-3)Gal(b1-4)GlcNAc(b1-3)Gal(b1-4)GlcNAc
# Procedure, shortened: as §1
# [38] = molecular target: Fuc(a1-2)[GalNAc(a1-3)]Gal(b1-4)GlcNAc(b1-3)GalNAc
# Procedure, shortened: as §1
# [39] = molecular target: Fuc(a1-2)[GalNAc(a1-3)]Gal(b1-4)GlcNAc(b1-3)[Fuc(a1-2)[GalNAc(a1-3)]Gal(b1-4)GlcNAc(b1-6)]GalNAc
# Procedure, shortened: as §1
# [40] = molecular target: Fuc(a1-2)[GalNAc(a1-3)]Gal(b1-4)GlcNAc(b1-6)GalNAc
# Procedure, shortened: as §1
# [41] = molecular target: Fuc(a1-2)[GalNAc(a1-3)]Gal(b1-4)[Fuc(a1-3)]GlcNAc
# Procedure, shortened: as §1
# [42] = molecular target: Fuc(a1-2)[GalNAc(a1-3)]Gal(b1-4)[Fuc(a1-3)]GlcNAc(b1-3)GalNAc
# Procedure, shortened: as §1
binder,measurement,setting,value
B1,glycan array binding signal (z-score),[1],-0.261
same,glycan array binding signal (z-score),[2],-0.092
same,glycan array binding signal (z-score),Fuc(a1-2)Gal6S(b1-4)Glc,-0.214
same,glycan array binding signal (z-score),[3],-0.227
same,glycan array binding signal (z-score),Fuc(a1-2)GlcNAc,-0.152
same,glycan array binding signal (z-score),Fuc(a1-2)[Gal(a1-3)]Gal,-0.223
same,glycan array binding signal (z-score),[4],-0.239
same,glycan array binding signal (z-score),[5],-0.235
same,glycan array binding signal (z-score),[6],-0.018
same,glycan array binding signal (z-score),[7],-0.265
same,glycan array binding signal (z-score),[8],0.005
same,glycan array binding signal (z-score),[9],-0.212
same,glycan array binding signal (z-score),[10],-0.221
same,glycan array binding signal (z-score),[11],-0.122
same,glycan array binding signal (z-score),[12],-0.22
same,glycan array binding signal (z-score),[13],-0.222
same,glycan array binding signal (z-score),[14],-0.211
same,glycan array binding signal (z-score),[15],-0.173
same,glycan array binding signal (z-score),[16],-0.214
same,glycan array binding signal (z-score),[17],-0.222
same,glycan array binding signal (z-score),[18],-0.15
same,glycan array binding signal (z-score),[19],-0.219
same,glycan array binding signal (z-score),[20],-0.155
same,glycan array binding signal (z-score),[21],-0.225
same,glycan array binding signal (z-score),[22],-0.312
same,glycan array binding signal (z-score),[23],-0.252
same,glycan array binding signal (z-score),[24],-0.208
same,glycan array binding signal (z-score),[25],-0.286
same,glycan array binding signal (z-score),[26],-0.255
same,glycan array binding signal (z-score),[27],-0.23
same,glycan array binding signal (z-score),[28],-0.168
same,glycan array binding signal (z-score),[29],-0.211
same,glycan array binding signal (z-score),[30],-0.253
same,glycan array binding signal (z-score),[31],-0.228
same,glycan array binding signal (z-score),[32],-0.237
same,glycan array binding signal (z-score),[33],-0.282
same,glycan array binding signal (z-score),[34],-0.241
same,glycan array binding signal (z-score),[35],-0.138
same,glycan array binding signal (z-score),[36],-0.091
same,glycan array binding signal (z-score),[37],0.28
same,glycan array binding signal (z-score),[38],-0.234
same,glycan array binding signal (z-score),[39],-0.234
same,glycan array binding signal (z-score),[40],-0.259
same,glycan array binding signal (z-score),[41],0.025
same,glycan array binding signal (z-score),[42],-0.222
